This is one part of the list.

The target of this assay is T1, OsWOX13 (Oryza sativa, UniProt Q5QMM3 1-267).
T1 sequence: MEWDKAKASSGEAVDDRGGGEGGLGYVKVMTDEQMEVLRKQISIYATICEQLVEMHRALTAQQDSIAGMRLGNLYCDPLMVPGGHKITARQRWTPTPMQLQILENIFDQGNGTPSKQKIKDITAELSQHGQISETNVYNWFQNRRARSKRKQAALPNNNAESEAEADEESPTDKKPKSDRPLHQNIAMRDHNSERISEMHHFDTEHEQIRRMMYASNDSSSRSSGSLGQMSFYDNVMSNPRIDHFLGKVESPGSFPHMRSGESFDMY
As to the kind of experiment: protein-binding microarray (RPBM); PBS, 2% BSA, 51.3 ng/ul salmon testes DNA, 50 uM zinc acetate, 200 nM TF, 25 C, 1 h; high values mean tight binding. The note with it: protein: recombinant; tags: N-terminal polyhistidine and DsRed monomer fusion (pET32a); label: CyDye5-dUTP incorporated in the synthesized complementary strand; 3' TTTTT single-stranded linker to array surface; dsDNA, one strand shown. A digest of the protocol:
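A custom Agilent array was converted to double-stranded form by primer extension with Cy5-dUTP and blocked with 2% BSA. Protein at 200 nM in PBS with 2% BSA, salmon testes DNA and 50 µM zinc acetate was applied for 1 h at 25 °C, followed by washing. The proteins were polyhistidine–DsRed N-terminal fusions of transcription factors, expressed in E. coli BL21-CodonPlus and Ni–NTA-purified. The binding signal is per-feature fluorescence intensity (arbitrary units) from an Axon 4000B scanner.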
As for “ATGTAGAATTTTCCTAATTTTGAGTGGAAATTATTGAGCTCGGAGTCACCTAGTGCAG”, the binding signal was 3640 fluorescence intensity (a.u.).
Under “ATTAATTGTTAACCTTGTATGTTTTAAGGGTATTTTGGGTCGGAGTCACCTAGTGCAG” stands 28100 fluorescence intensity (a.u.).
As for “AAAAGCAATAATTAACTGTTGAAAGGCCAAAAGTCCATAACGGAGTCACCTAGTGCAG”, the binding signal is 13100 fluorescence intensity (a.u.).
Under “TTGATTTCTAATCGAAATATGATATTTAATTTAAAGCCATCGGAGTCACCTAGTGCAG” stands 5440 fluorescence intensity (a.u.); under “GTTGGTGAGATTGAAATTAAAGGAGACAGAGATGTAGACACGGAGTCACCTAGTGCAG”, 18700 fluorescence intensity (a.u.); under “TTTCAATCTACGTATTAATAGAATCTATAGTATTCATATACGGAGTCACCTAGTGCAG”, 9500 fluorescence intensity (a.u.).
Under “TAATTAATTGAAAATAAAATTGTACTACACGAGATGGCCCCGGAGTCACCTAGTGCAG” stands 47300 fluorescence intensity (a.u.).
As to “ACCTCATATAATTGTAGTTCAACTGTGACTTAGGATTGTTCGGAGTCACCTAGTGCAG”, the binding signal was 5370 fluorescence intensity (a.u.).
For “ATTAAAATTAGAATTTCATCCATTACCTTCTCATATTTGGCGGAGTCACCTAGTGCAG”, the binding signal is 5880 fluorescence intensity (a.u.).
“ACTGCTGCCGATTGACTGCTACGAGTAGCTCGCACCTGGCCGGAGTCACCTAGTGCAG”: the binding signal is 7450 fluorescence intensity (a.u.).
Under “TTGTTTGATTATAAACAGTGCCAACTGCTCTATTCCACTACGGAGTCACCTAGTGCAG” stands 11000 fluorescence intensity (a.u.).
Under “ACTTGATTATAGTCCTCCTTTCGTCTCTATAGCGATTGATCGGAGTCACCTAGTGCAG” stands 38600 fluorescence intensity (a.u.).
Under “GGTCCTAATTGACAAATCCACAGAAGTAGTACTCCAGGAGCGGAGTCACCTAGTGCAG” stands 53000 fluorescence intensity (a.u.).
In the case of “TTTGATTTAACATTATACACAGCTATAGTGCATATGAACACGGAGTCACCTAGTGCAG”, the binding signal is 34200 fluorescence intensity (a.u.).
In the case of “CACATAAGATTGGCTACATGGGCATCGAGAAATGTAAATACGGAGTCACCTAGTGCAG”, the binding signal is 3510 fluorescence intensity (a.u.).
The value for “CTTAATCTATTATTATATGATATGCATAAAATTAGTGACACGGAGTCACCTAGTGCAG” was 9640 fluorescence intensity (a.u.); that for “TTATATGGGATTGATATGGAAAACCATAGAATACAAAGAGCGGAGTCACCTAGTGCAG” was 9760 fluorescence intensity (a.u.).
The value for “AACTAGATTATTTTATCTGCTATCACAAATATCCACAATTCGGAGTCACCTAGTGCAG” was 4520 fluorescence intensity (a.u.); that for “GAAATGTGTTTTAAATTGAATATTTTGTTATTTGTTGACGCGGAGTCACCTAGTGCAG” was 9420 fluorescence intensity (a.u.).
Under “CAGTAAATTTAATCGTCACCGTACAATTATCGTATTTCGCCGGAGTCACCTAGTGCAG” stands 24900 fluorescence intensity (a.u.).
Regarding “CTTAATTAACTAATTAATGTAATTAAATTACTCCTGACAACGGAGTCACCTAGTGCAG”, the binding signal was 39900 fluorescence intensity (a.u.).
The value for “AATAATTAATAAAAGAGCGCGGGCCCACCACCCAACCCACCGGAGTCACCTAGTGCAG” was 15700 fluorescence intensity (a.u.); that for “GTCGACTGAAAAGGATTGACATTCCAAGCCTTTTCAGATTCGGAGTCACCTAGTGCAG” was 3580 fluorescence intensity (a.u.).
With “AGTAATTATTAATTCTTTTCGTATCATTTATATATTGTTACGGAGTCACCTAGTGCAG”, the binding signal was 12500 fluorescence intensity (a.u.).
Regarding “TTTGATTGATGGCCATAAGTTGCCACACTTTGCCACACTTCGGAGTCACCTAGTGCAG”, the binding signal was 53800 fluorescence intensity (a.u.).
Under “ATATGTTAATGAATTTAAACATATATATGTGTGTTTAGATCGGAGTCACCTAGTGCAG” stands 3540 fluorescence intensity (a.u.); under “GGAAAATGGAACCATAATGAATCCAGATTGGATGTGTGGGCGGAGTCACCTAGTGCAG”, 7440 fluorescence intensity (a.u.); under “TATGATCATCTTGATGGAAAAGACGAACTCTGGTTTGATTCGGAGTCACCTAGTGCAG”, 5600 fluorescence intensity (a.u.).
Consider “TTTTAAACTAATACTTAATTAATCATATATTAATTAGGTACGGAGTCACCTAGTGCAG”, for which the binding signal was 19200 fluorescence intensity (a.u.).
As for “CGTTGACTTTTCTAAACATGTTTGACCGTTCGTCTTATTCCGGAGTCACCTAGTGCAG”, the binding signal was 4780 fluorescence intensity (a.u.).
On to “ATCCTCTTAATCTCTCATTGATTTAGGGTTTCGTGAGAATCGGAGTCACCTAGTGCAG”, for which the binding signal is 4030 fluorescence intensity (a.u.).
Consider “TTCACATGTAAATTTTAAATTTTGTATTGGATTTGGTCTTCGGAGTCACCTAGTGCAG”, for which the binding signal was 5140 fluorescence intensity (a.u.).
Consider “GCAAATTGACTTATAATATGAAATGGAAGGACTAACATCTCGGAGTCACCTAGTGCAG”, for which the binding signal is 23500 fluorescence intensity (a.u.).
Consider “AAAAGGATATGATTTGAAATGGCATTAAAGTGAATAGGCCCGGAGTCACCTAGTGCAG”, for which the binding signal was 4540 fluorescence intensity (a.u.).
Under “TTGTCCTTGATTGCTATCTATCTTATATTCGAAGGAAGTTCGGAGTCACCTAGTGCAG” stands 22300 fluorescence intensity (a.u.); under “TGTACTGATGATGCAATTTACTTTATATTTATCAAGCATTCGGAGTCACCTAGTGCAG”, 5610 fluorescence intensity (a.u.); under “GTCGTAGATTGACGGGAAGAGGAACCGGTGGTTGTGATGCCGGAGTCACCTAGTGCAG”, 41400 fluorescence intensity (a.u.).
As to “TTGCTATTATTTGATTGATTTTAGGTCTCACAACGCCATCCGGAGTCACCTAGTGCAG”, the binding signal is 50000 fluorescence intensity (a.u.).
The value for “CTCATCAGTTGACCCCTGTCAATTTAGTGTGACTATGTGACGGAGTCACCTAGTGCAG” was 3380 fluorescence intensity (a.u.).
Under “TATTAATTGAGAAAATTACAATAAAATGTAAGTCGTCAAACGGAGTCACCTAGTGCAG” stands 38600 fluorescence intensity (a.u.); under “GAAAATTAAACGGAACCTATATTTCCACCCAAATATAGGTCGGAGTCACCTAGTGCAG”, 5130 fluorescence intensity (a.u.); under “CATGATTTCTCTCTCTGGCTTTTGAATTTGAACTAGTCCACGGAGTCACCTAGTGCAG”, 15900 fluorescence intensity (a.u.).

Values taken from paper PMC7819943, “Rice protein-binding microarrays: a tool to detect cis-acting elements near promoter regions in rice”.
